Where a chain is given by its changes, count along the chain named. Names and notes keep the numbering of the source. ± gives the standard deviation of the averaged measurements. Laboratory Escherichia coli strains with one amino-acid change in an essential protein, pooled on minimal glucose agar with carbenicillin or gentamicin at twice the control MIC (plus kanamycin and chloramphenicol for the plasmids), 48 h. Fold change of barcode share against drug-free plates; higher = less susceptible. Active = above 20 in both replicates (the paper's putatively resistant). '<' = one read or none on drug, '>' = one read or none on a drug-free plate. Shares are relative, so most strains fall below 1 when a few take over. Listed are strains with at least 15 reads on both drug-free plates, and hits; most hits rest on fewer reference reads. Replicate rank correlation about 0.5. Edits are read from barcodes.
Target: Escherichia coli (laboratory strain)
Assay: barcode share on antibiotic plates over drug-free plates; higher = less susceptible
Settings: antibiotic: gentamicin; 2× MIC (MIC 0.45 µg/mL)
Experimental: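 A pool of E. coli strains, each edited to carry one amino-acid change in an essential protein, was grown for 48 h on minimal glucose agar with or without antibiotic; strain barcodes were sequenced; mean of two replicates.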

B1: tmk V141A (protein)
chain: MRSKYIVIEGLEGAGKTTARNVVVETLEQLGIRDMVFTREPGGTQLAEKLRSLVLDIKSVGDEVITDKAEVLMFYAARVQLVETVIKPALANGTWVIGDRHDLSTQAYQGGGRGIDQHMLATLRDAVLGDFRPDLTLYLDATPEVGLKRARARGELDRIEQESFDFFNRTRARYLELAAQDKSIHTIDATQPLEAVMDAIRTTVTHWVKELDA
fold change of barcode share: < 0.0173

B2: trmD V152W (protein)
chain: MWIGIISLFPEMFRAITDYGVTGRAVKNGLLSIQSWSPRDFTHDRHRTVDDRPYGGGPGMLMMVQPLRDAIHAAKAAAGEGAKVIYLSPQGRKLDQAGVSELATNQKLILVCGRYEGIDERVIQTEIDEEWSIGDYVLSGGELPAMTLIDSWSRFIPGVLGHEASATEDSFAEGLLDCPHYTRPEVLEGMEVPPVLLSGNHAEIRRWRLKQSLGRTWLRRPELLENLALTEEQARLLAEFKTEHAQQQHKHDGMA
fold change of barcode share: < 0.0234

B3: trmD I71A (protein)
chain: B2 chain with I71A, W152V
fold change of barcode share: < 0.0171

B4: trmD L213W (protein)
chain: B2 chain with W152V, L213W
fold change of barcode share: < 0.0227

B5: tsaD V131A (protein)
chain: MRVLGIETSCDETGIAIYDDEKGLLANQLYSQVKLHADYGGVVPELASRDHVRKTVPLIQAALKESGLTAKDIDAVAYTAGPGLVGALLVGATVGRSLAFAWDVPAIPVHHMEGHLLAPMLEDNPPEFPFAALLVSGGHTQLISVTGIGQYELLGESIDDAAGEAFDKTAKLLGLDYPGGPLLSKMAAQGTAGRFVFPRPMTDRPGLDFSFSGLKTFAANTIRDNGTDDQTRADIARAFEDAVVDTLMIKCKRALDQTGFKRLVMAGGVSANRTLRAKLAEMMKKRRGEVFYARPEFCTDNGAMIAYAGMVRFKAGATADLGVSVRPRWPLAELPAA
fold change of barcode share: < 0.0195

B6: tsaD V131W (protein)
chain: B5 chain with A131W
fold change of barcode share: < 0.0156

B7: tyrS V307W (protein)
chain: MASSNLIKQLQERGLVAQVTDEEALAERLAQGPIALYCGFDPTADSLHLGHLVPLLCLKRFQQAGHKPVALVGGATGLIGDPSFKAAERKLNTEETVQEWVDKIRKQVAPFLDFDCGENSAIAANNYDWFGNMNVLTFLRDIGKHFSVNQMINKEAVKQRLNREDQGISFTEFSYNLLQGYDFACLNKQYGVVLQIGGSDQWGNITSGIDLTRRLHQNQVFGLTVPLITKADGTKFGKTEGGAVWLDPKKTSPYKFYQFWINTADADVYRFLKFFTFMSIEEINALEEEDKNSGKAPRAQYVLAEQWTRLVHGEEGLQAAKRITECLFSGSLSALSEADFEQLAQDGVPMVEMEKGADLMQALVDSELQPSRGQARKTIASNAITINGEKQSDPEYFFKEEDRLFGRFTLLRRGKKNYCLICWK
fold change of barcode share: < 0.00618

B8: tyrS V307Q (protein)
chain: B7 chain with W307Q
fold change of barcode share: < 0.01

B9: tyrS V307P (protein)
chain: B7 chain with W307P
fold change of barcode share: 0.0192 ± 0.011

B10: ispU L206W (protein)
chain: MMLSATQPLSEKLPAHGCRHVAIIMDGNGRWAKKQGKIRAFGHKAGAKSVRRAVSFAANNGIEALTLYAFSSENWNRPAQEVSALMELFVWALDSEVKSLHRHNVRLRIIGDTSRFNSRLQERIRKSEALTAGNTGLTLNIAANYGGRWDIVQGVRQLAEKVQQGNLQPDQIDEEMLNQHVCMHELAPVDLVIRTGGEHRISNFLWWQIAYAELYFTDVLWPDFDEQDFEGALNAFANRERRFGGTEPGDETA
fold change of barcode share: < 0.0184

B11: cdsA L126Q (protein)
chain: MLKYRLISAFVLIPVVIAALFLLPPVGFAIVTLVVCMLAAWEWGQLSGFTTRSQRVWLAVLCGLLLALMLFLLPEYHRNIHQPLVEISLWASLGWWIVALLLVLFYPGSAAIWRNSKTLRLIFGVQTIVPFFWGMLALRAWHYDENHYSGAIWLLYVMILVWGADSGAYMFGKLFGKHKLAPKVSPGKTWQGFIGGLATAAVISWGYGMWANLDVAPVTLLICSIVAALASVLGDLTESMFKREAGIKDSGHLIPGHGGILDRIDSLTAAVPVFACLLLLVFRTL
fold change of barcode share: < 0.0206

B12: coaD V116W (protein)
chain: MQKRAIYPGTFDPITNGHIDIVTRATQMFDHVILAIAASPSKKPMFTLEERVALAQQATAHLGNVEVVGFSDLMANFARNQHATVLIRGLRAVADFEYEMQLAHMNRHLMPELESWFLMPSKEWSFISSSLVKEVARHQGDVTHFLPENVHQALMAKLA
fold change of barcode share: 0.0286 ± 0.033

B13: coaD F117A (protein)
chain: B12 chain with W116V, F117A
fold change of barcode share: < 0.0113

B14: coaD F117W (protein)
chain: B12 chain with W116V, F117W
fold change of barcode share: 0.291 ± 0.37

B15: coaD F117P (protein)
chain: B12 chain with W116V, F117P
fold change of barcode share: < 0.0178

B16: coaD L118W (protein)
chain: B12 chain with W116V, L118W
fold change of barcode share: 0.0628 ± 0.061

B17: cysB L161P (protein)
chain: MKLQQLRYIVEVVNHNLNVSSTAEGLYTSQPGISKQVRMLEDELGIQIFSRSGKHLTQVTPAGQEIIRIAREVLSKVDAIKSVAGEHTWPDKGSLYIATTHTQARYALPNVIKGFIERYPRVSLHMHQGSPTQIADAVSKGNADFAIATEALHLYEDLVMPPCYHWNRAIVVTPDHPLAGKKAITIEELAQYPLVTYTFGFTGRSELDTAFNRAGLTPRIVFTATDADVIKTYVRLGLGVGVIASMAVDPVADPDLVRVDAHDIFSHSTTKIGFRRSTFLRSYMYDFIQRFAPHLTRDVVDAAVALRSNEEIEVMFKDIKLPEK
fold change of barcode share: 0.0357 ± 0.028

Source: the supplement of paper PMC11876631
